Source: the supplement of paper PMC3334620
In all, about 33,000 sequences were measured (“E-score (-0.5 to 0.5)”: median about -0.021, highest 2% from about 0.32 on). The list shows a part of the results.

Target: T1, Zap1 (UniProt P47043)
T1 sequence: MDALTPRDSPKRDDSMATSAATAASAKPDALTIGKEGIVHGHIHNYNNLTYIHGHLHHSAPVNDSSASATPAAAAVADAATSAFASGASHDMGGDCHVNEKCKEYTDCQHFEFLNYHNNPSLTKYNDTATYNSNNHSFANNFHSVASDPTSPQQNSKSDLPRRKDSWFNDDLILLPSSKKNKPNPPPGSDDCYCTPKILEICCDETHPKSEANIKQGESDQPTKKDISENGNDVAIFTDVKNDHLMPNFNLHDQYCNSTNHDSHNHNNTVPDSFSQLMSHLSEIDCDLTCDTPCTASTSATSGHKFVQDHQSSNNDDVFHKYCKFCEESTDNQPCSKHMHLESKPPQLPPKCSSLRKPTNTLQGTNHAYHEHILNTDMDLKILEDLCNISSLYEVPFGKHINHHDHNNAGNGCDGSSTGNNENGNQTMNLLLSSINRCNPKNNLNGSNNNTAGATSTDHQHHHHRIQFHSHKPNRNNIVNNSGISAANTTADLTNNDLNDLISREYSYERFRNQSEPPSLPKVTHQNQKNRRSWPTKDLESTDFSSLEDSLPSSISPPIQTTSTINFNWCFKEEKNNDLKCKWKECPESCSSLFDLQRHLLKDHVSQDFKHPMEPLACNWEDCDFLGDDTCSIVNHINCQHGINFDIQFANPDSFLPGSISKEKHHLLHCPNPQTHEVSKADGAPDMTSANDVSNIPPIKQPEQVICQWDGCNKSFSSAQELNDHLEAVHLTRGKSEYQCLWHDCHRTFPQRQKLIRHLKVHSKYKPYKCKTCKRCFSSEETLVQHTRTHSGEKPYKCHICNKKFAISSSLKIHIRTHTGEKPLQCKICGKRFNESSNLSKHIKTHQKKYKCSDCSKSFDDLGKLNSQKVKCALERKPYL
Assay: PBM E-score (8-mer binding enrichment) (E-score (-0.5 to 0.5)); higher = stronger / more preferred TF binding; most listed sequences are background and not binding sites
Settings: protein concentration: 200 nM; construct: GST-full length
How it was run: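 GST-tagged yeast TFs (full-length or DNA-binding domain) were made by PURExpress in vitro transcription/translation and applied at about 100-200 nM to universal all-10-mer Agilent arrays. The arrays were made double-stranded by primer extension, on fresh or once-stripped slides. Bound protein was detected with fluorescent anti-GST, and scans were normalised with masliner. Each ungapped eight-base word, pooled with its reverse complement, received an E-score (modified Wilcoxon-Mann-Whitney statistic) from the Universal PBM Analysis Suite.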

Sequence	PBM E-score
TAATATGA	0.151
TGATCCAA	0.0739
ATTGCGTA	-0.0693
AAGTGGCC	0.0931
AAGTACTA	0.0859
AATGACGT	-0.0682
CATCCGCG	-0.0398
ATAGCTAT	-0.0468
ACTTTGAC	-0.0229
ATGAAGCA	0.02
GATTCCTA	0.0308
AACCCAAC	0.282
ACTAGAAA	0.169
TAGTCCCA	-0.147
AGCGCATG	-0.227
CATTAGCG	0.0314
ATGCTCAG	0.00395
AGCAGAAA	0.163
AGAGATGA	-0.151
CTCAATAC	0.172
GTTCATGA	0.127
GGTCAACA	0.211
CATTTTGC	-0.0493
CATCAACC	0.168
AACCAGCG	0.205

Sequence	PBM E-score
AGGGATAC	0.163
CCTTTTCC	0.0501
GTTGCTGA	0.0285
ACAAACAC	0.14
GGAGATGA	-0.13
CGCTACCA	0.11
AAACGAAC	0.129
TACGAGCA	-0.262
CAACACCA	0.0784
GGTGATGA	0.338
CTTCATTA	0.128
AGCTGACG	-0.196
CGACATGA	-0.13
TAGCTTCA	-0.0845
GGACCAAC	0.0453
CGAGGTAC	0.187
AAATGGGC	-0.113
CTACTTCC	0.0316
TAGTGATA	0.112
ATATTCTA	0.0377
CATATGTA	0.169
ACGCTACG	-0.129
GACGTAGC	-0.216
CTGTCCTC	-0.192
CGTAAACA	0.124

Sequence	PBM E-score
GTATGTGA	0.0632
ATAGAGCA	0.0499
GTCAGGTA	0.109
TCCCTTCA	-0.0499
ACACCCAG	-0.12
CTATCCAA	-0.164
AATAAGGG	0.0215
AACATCGG	-0.124
CACATCGG	-0.0476
AGCATCTA	-0.248
GGCACCTA	-0.00828
AGAGAATA	-0.01
AGTAATTC	0.084
AGTCGAGC	-0.254
AAACATTG	-0.00173
TGTATACA	0.131
GCAGCCTA	-0.218
GTGCATTA	0.135
ATTTAAGC	0.159
CGAATCCA	-0.0431
TAGTAACA	0.0724
AAATTGTA	0.0146
ACGAGTTA	0.0684
CCCCAAGA	0.0838
GCAGCTTA	-0.106

Sequence	PBM E-score
CGCTATTC	-0.0217
CAGCCGTC	-0.125
AATGCCTC	-0.25
ATTGTATG	0.0229
TAATTGCA	0.12
ATACCGCC	-0.117
ATCTGGCC	-0.0975
GTCTTGTA	-0.0425
GTCTAGAC	-0.295
CCTCCCAC	-0.229
TAATGGTA	0.309
CTTATGCA	0.0862
GTAAGTAC	-0.0293
CTTCGGCA	-0.0521
AGGTTCTC	0.299
AGATTACC	0.27
ACCAAATC	0.0501
AGTGAGGC	-0.0666
CCACCCAC	0.263
GCCTGCTA	-0.213
AGCACGAA	-0.0881
GACATATA	0.0111
TCAAACGA	0.0515
ATTCATTC	0.13
CATTTTAC	0.213

Sequence	PBM E-score
AGGCCCCT	0.0315
CACGGACA	0.0578
TACTGCGA	-0.00442
GAGACTTA	-0.174
AGCCATAA	-0.047
AGACATCC	-0.139
AAGCGTAA	-0.126
CTCCATGA	0.0162
AGTCACGA	0.0207
CGTTACTA	0.0809
CTCTCACA	0.135
CCGGAGGC	-0.179
GTGTGCCA	-0.11
AAGCGCTC	-0.28
CTGTGAGA	0.135
ATTCCTAC	-0.0543
AAGTCAAT	-0.0873
ATTATCCG	0.0395
AGCGCTAT	-0.0584
AAGACCGA	0.164
CGTTCTGA	0.0654
GCAGTTCA	0.0294
CAGGTTTC	0.198
AGAACTCG	-0.124
CCGGGTTA	0.388

Sequence	PBM E-score
ACATACCA	-0.0785
CTCATTCC	-0.186
GGTCGGGA	0.149
AACGTTAT	0.00465
ATTGCGGG	0.11
ACGTAACT	0.0456
CCGGATCG	-0.0871
GATGACGC	-0.246
AGTATTTG	0.00918
AGAGCAAC	-0.0037
CGCATGGC	-0.059
GAAAGACA	-0.126
CGGCAATC	-0.102
ATATGAAG	0.0132
ATGTGCAA	0.136
CACTAGCC	0.0318
CACAAAAA	0.273
ATGTCGCC	-0.345
AAAGTTAG	0.104
CATACCAG	0.0326
GCTGGTTA	0.329
AGGAAATG	0.0675
TAAGTAAA	0.0554
GCGCCCCA	-0.174
AACAGCTC	-0.13

Sequence	PBM E-score
AACCGCCT	0.123
AGCAGGTG	0.053
ACGATTAT	-0.0828
ACAGTTTG	-0.102
CAGTTGCG	-0.00872
AAGCTAAA	-0.0715
AGCGGGCA	-0.257
ATTTTGAG	0.224
CGGTCACC	0.276
ACTGTACG	-0.127
AGCCTATC	-0.258
CAAGCCAG	-0.11
CAAATGGA	-0.084
CGAGCCAG	-0.265
CCGTACAA	0.0893
AATCCACC	-0.143
ATAACGTG	0.0108
ACACTGGT	-0.0246
CGTGCTCC	-0.168
GCTCCATA	-0.0964
GGGAGTCA	-0.172
ATTATCGG	0.034
